# Where “and” joins values, the source holds several entries; their conditions need not be identical. Identical values can stand only once. The campaign covered roughly 420,000 compounds. About 64,000 (15%) were called active. The inconclusive results got no clear call from the source; some entries with a clear call stand among them for comparison. Calls come from the whole dose curve; as a rule, active = well fitted inhibition curve with a large enough effect; inconclusive = small, poorly fitted or top-dose-only effect; inactive = flat fitted curve, though single readings scatter. Potencies beside an inconclusive call are fits to weak or partial responses and may not hold up.
# Test: qHTS for Inhibitors of human tyrosyl-DNA phosphodiesterase 1 (TDP1): qHTS in cells in absence of CPT; note: nearly all actives have a fitted effect of over 55% in size
# Settings: DT40 Tdp1-/- hTDP1 cells, no CPT, ATP luminescence, 48 h; activity change, negative = growth inhibition: at 46.2 µM (top of the series) unless noted
# Procedure, shortened: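 Cells were dispensed at 400 per well, compounds added by pin tool, plates incubated ≥48 hr at 37 °C, then CellTiter-Glo added for 30 min at room temperature before luminescence reading. Line: DT40 Tdp1-/- complemented with hTDP1; camptothecin omitted.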
# % is set by controls: 0 for no effect and ±100 for the full control effect; potency is the fitted concentration of half-maximal effect; tags give direction and shape of the fitted curve.
Structure (SMILES),Potency,"activity change, negative = growth inhibition"
CC(C)Cn1cnc2c(Sc3c([N+](=O)[O-])ncn3C)nc(N)nc21,"inconclusive: 29.1 µM [inhibitor, single point]",
Cc1cccc(C(=O)N[C@H](C(=O)OCC(=O)NC(=O)c2cccn2C)C(C)C)c1,"inconclusive: 3.66 µM [inhibitor, full curve, poor fit]",
N#Cc1cccc(NC(=O)c2cncn2-c2ccccc2)c1,inactive,
Cn1c(=O)[nH]c(=O)c2c1nc(N1CCCC1)n2CCCSc1nc2ccccc2o1,"inconclusive: 25.9 µM [inhibitor, single point]",
COc1ccc(-n2nc(C(=O)Nc3cccc(C(F)(F)F)c3)c3c4ccccc4n(C)c3c2=O)cc1,inactive,
CCOc1cc(/C=N\Nc2nc(-c3ccc(C)cc3)c(NC(C)=O)s2)ccc1O,"inconclusive: 25.9 µM [inhibitor, single point]",
CCc1nnc(NC(=O)C(NS(=O)(=O)c2ccccc2)C(C)C)s1 (centres undefined),inactive,
COc1ccc(C(=O)N(Cc2ccccc2)Cc2cc3cc4c(cc3[nH]c2=O)OCCO4)cc1,active: 11.2 µM,
COc1ccc(C2CC(c3ccc(C)cc3)Nc3ncnn32)cc1 (centres undefined),"inconclusive: 32.6 µM [inhibitor, single point]",
O=C(/C=C/c1ccco1)Nc1ccc(Cl)c(S(=O)(=O)N2CCOCC2)c1,"inconclusive: 25.9 µM [inhibitor, single point]",
Cc1ccc(NC(=S)NCc2ccco2)c(C)c1,"inconclusive: 23.1 µM [inhibitor, single point]",
CC(C)(C)OC(=O)N1CCC[C@H]1c1nnc(SC/C=C/c2ccccc2)o1,active: 23.1 µM,
CCCN(C(=O)CSc1nc2c(cnn2-c2ccccc2)c(=O)[nH]1)C1CCS(=O)(=O)C1 (centres undefined),"inconclusive: 29.1 µM [inhibitor, single point]",
O=C(c1cccc(-n2cccc2)c1)N1CCN(S(=O)(=O)c2ccccc2)CC1,"inconclusive: 25.9 µM [inhibitor, single point]",
CCOC(=O)c1sc(NC(=O)c2ccccc2F)c(C(N)=O)c1C,"inconclusive: 4.61 µM [inhibitor, full curve]",
Cc1ccc(C=NNc2ccc([N+](=O)[O-])cn2)cc1,inactive,
CCC(=O)N1c2ccccc2NC2=C(C(=O)CC(c3ccco3)C2)C1c1ccco1 (centres undefined),inactive,
COc1cc(OC)cc(C(=O)NC2CCN(C(=O)N3c4ccccc4Sc4ccccc43)CC2)c1,"inconclusive: 22.4 µM [inhibitor, single point]",
Cc1ccccc1S(=O)(=O)/N=C(/c1ccccc1)N1CCOCC1,"inconclusive: 16.4 µM [inhibitor, single point]",
CC(=O)c1ccc(C(=O)N2CCCC(N3CCN(c4ccc(F)cc4)CC3)C2)s1 (centres undefined),"inconclusive: 16.4 µM [inhibitor, single point]",
Cc1ccccc1NC(=O)CSC1=Nc2ccccc2C2=NC(CCC(=O)NCc3ccccc3)C(=O)N12 (centres undefined),"inconclusive: 23.1 µM [inhibitor, single point]",
Cc1nn(CC(=O)NCc2ccccc2Cl)c(=O)c2nn(-c3ccccc3)c(C)c12,"inconclusive: 23.1 µM [inhibitor, single point]",
CC(C)CCNC(=O)CSc1nc2ccccc2s1,inactive,

Structure (SMILES),Potency,"activity change, negative = growth inhibition"
O=C(NC1CCCc2ccccc21)C1CCN(c2c3c(nc4ncnn24)CCC3)CC1 (centres undefined),"inconclusive: 20.6 µM [inhibitor, single point]",
O=S(=O)(NCCc1csc(-c2cccnc2)n1)c1ccc(F)cc1,inactive,
COc1ccccc1COCC(O)CN1CCCCC1CO (centres undefined),inactive,
COC(=O)c1sccc1S(=O)(=O)N(CC(=O)NCc1ccc(C)cc1)c1ccc(Cl)cc1,"inconclusive: 16.4 µM [inhibitor, single point]",
COC(=O)CN1C(=O)CSc2ccc(S(=O)(=O)N3CCOCC3)cc21,inactive,
OCCNc1nc(Nc2ccc(Cl)c(Cl)c2)nc2ccccc12,active: 16.4 µM,
COc1ccc(CC(=O)Nc2oc(-c3ccccc3)c(-c3ccccc3)c2C#N)cc1OC,"inconclusive: 29.1 µM [inhibitor, partial curve, poor fit]",
COc1ccccc1CNC(=O)CN1C(=O)COc2ccc(S(=O)(=O)N3CCCCC3)cc21,"inconclusive: 20.6 µM [inhibitor, single point] and inconclusive: 10.3 µM [inhibitor, partial curve]",
NC(=O)c1cc(S(=O)(=O)N2CCc3ccccc3C2)cs1,"inconclusive: 20.6 µM [inhibitor, single point]",
O=C(NCc1ccco1)c1scc2c1OCCO2,inactive,
COc1ccc(-c2csc(NC(=O)C3CCN(c4ncnc5sc(C)c(C)c45)CC3)n2)cc1OC,active: 2.59 µM,
COc1ccc(C(=O)CCC(=O)N2CCN(c3cc(C)ccc3C)CC2)cc1,"inconclusive: 2.91 µM [inhibitor, partial curve]",
Cc1cc(C)cc(N2C(=O)N(CC(=O)c3ccc(Br)cc3)c3ccccc3S2(=O)=O)c1,inactive,
C=CCc1c(C)nc(-c2ccccc2)nc1N/N=C/c1ccncc1,inactive,
Cc1occc1C(=O)N/N=C/C1=C(N2CCOCC2)C(=C\c2ccc(Cl)cc2)/CC1,active: 0.92 µM,
Cc1ccc(Sc2ccc(CN3CCCC3)cc2[N+](=O)[O-])cc1,active: 5.8 µM,
CCNc1nc(NCC)n2c(SCC(=O)NC34CC5CC(CC(C5)C3)C4)nnc2n1,"inconclusive: 23.1 µM [inhibitor, single point]",
Cc1ccc(S(=O)(=O)N2CCOC2CNC(=O)C(=O)NCCc2ccc(S(N)(=O)=O)cc2)cc1 (centres undefined),"inconclusive: 14.6 µM [inhibitor, partial curve, poor fit]",
CN(C)CC/C=C1\c2ccc(F)cc2Sc2cc(F)c(Cl)cc21,"inconclusive: 18.4 µM [inhibitor, single point]",
COc1ccc(S(=O)(=O)N2CN3CCN(C3)C2)cc1OC,"inconclusive: 18.4 µM [inhibitor, single point]",
CN1c2c(nc(N)[nH]c2=O)NCC1CNc1ccc(C(=O)NC(CCC(=O)O)C(=O)O)cc1 (centres undefined),"inconclusive: 6.31 µM [inhibitor, single point]",
CC1CCCC(N2C(=O)NC(NC(=O)c3ccco3)(C(F)(F)F)C2=O)C1C (centres undefined),inactive,
C[C@@H](c1ccccc1)N1C[C@H](COCc2ccccc2)Oc2cc(N3CC[C@H](O)C3)ccc2S1(=O)=O,active: 20.6 µM,

Structure (SMILES),Potency,"activity change, negative = growth inhibition"
Cc1ccc2[nH]c3nc(SCC#N)nnc3c2c1,inactive,
S=C(NCc1ccc(Cl)cc1)Nc1ccc(Cl)cc1Cl,,inconclusive: -36.7% [inhibitor]
CCc1cccc2c(C(=O)COC(=O)[C@@H]3CC(O)CN3S(=O)(=O)c3ccccc3[N+](=O)[O-])c[nH]c12 (some centres undefined),active: 20.6 µM,
O=C(CN1CCN(S(=O)(=O)c2ccccc2[N+](=O)[O-])CC1)Nc1ccc(N2CCOCC2)cc1,"inconclusive: 18.4 µM [inhibitor, single point]",
O=S1(=O)CC(N2CCC(c3ccccc3)CC2)CN1C1CCCCC1 (centres undefined),"inconclusive: 18.4 µM [inhibitor, single point]",
CCO[C@H]1OC(C(=O)N2CCOCC2)=C[C@@H](c2ccc(C(F)(F)F)cc2)[C@@H]1CCCO,"inconclusive: 0.58 µM [inhibitor, full curve, poor fit]",
COc1ccc(-c2ccc3c(c2)C2CC3CCN2C(=O)OCc2ccccc2)cc1 (centres undefined),"inconclusive: 16.4 µM [inhibitor, single point]",
COc1ccc(OCCCN(C)Cc2ccccc2)cc1,"inconclusive: 20.6 µM [inhibitor, single point]",
C=CCN=C(C)C1=C(O)C(C)OC1=O (centres undefined),inactive,
CCOC(=O)Cn1nc(C)c(NC(=O)COc2cccc(Cl)c2)c1C,"inconclusive: 29.1 µM [inhibitor, partial curve, poor fit]",
CC(=O)Nc1ccc(C(=O)N/N=C/c2cc(Br)cc(Br)c2O)cc1,active: 10.3 µM,
CN(C)c1cccc(C(=O)OCC(=O)N2CCc3ccccc3C2)c1,inactive,
Cc1ccc(CCCOC(=O)C[N+]2(C)CCCCC2)cc1,inactive,
Cc1ccc(NC2=C(Cl)C(=O)OC2OC(=O)c2ccco2)cc1C (centres undefined),"inconclusive: 18.4 µM [inhibitor, single point]",
CC(CN1CCN(C)CC1)OC(=O)c1ccc(F)cc1 (centres undefined),inactive,
Cc1cc(SCC(=O)Nc2cccc(S(=O)(=O)NC3=NCCCCC3)c2)nc2ccccc12,"inconclusive: 23.1 µM [inhibitor, single point]",
COc1ccc2[nH]cc(CCNC(=O)c3ccc4ccccc4n3)c2c1,"inconclusive: 29.1 µM [inhibitor, single point]",
Fc1cccc(COc2ccccc2C(=S)N2CCCC2)c1,"inconclusive: 29.1 µM [inhibitor, single point]",
CC1(Cc2ccccc2C#N)C(=O)Nc2cc(-c3ccccc3Cl)ccc21 (centres undefined),"inconclusive: 25.9 µM [inhibitor, single point]",
S=c1[nH]nc(-c2cc(-c3ccccc3)n[nH]2)n1/N=C/c1c2ccccc2cc2ccccc12,"inconclusive: 18.4 µM [inhibitor, single point]",
COc1ccc(C(CC(=O)c2ccc(C)cc2)Sc2ccccc2N)cc1 (centres undefined),"inconclusive: 29.1 µM [inhibitor, single point]",
COc1ccc(NC(=O)C2CCCN(C(=O)Nc3ccc(OC)cc3)C2)cc1 (centres undefined),inactive,
N#Cc1ccc(OS(=O)(=O)c2ccc(-c3ccon3)s2)cc1,"inconclusive: 13 µM [inhibitor, partial curve]",
